Measurements: PubChem BioAssay AID686970 (National Center for Advancing Translational Sciences (NCATS), 2013)
Among all 360,000 compounds or so, about 6,000 (1.7%) were called active. This list was built around the results that the source calls inconclusive (neither active nor inactive); the mix of calls is not that of the screen. Calls follow the shape of the dose curve; as a rule, active = well fitted cell-killing curve with a large enough effect; inconclusive = small, poorly fitted or top-dose-only effect, or effect the other way; inactive = flat fitted curve, though single readings scatter. No potency is given beside an inconclusive call; the fits are too rough. Some compounds were tested as several samples or in several runs, with calls that do not always agree.

Experiment: qHTS for induction of synthetic lethality in tumor cells producing 2HG: qHTS for the HT-1080-NT fibrosarcoma cell line;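 also: NT is the 2HG producing partner of a matched IDH1 knockdown line; nearly all actives have a fitted effect of over 55% in size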;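 as to activity, negative = less viability: 0% = DMSO-treated cells and -100% = media-only wells without cells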
Conditions: HT-1080-NT fibrosarcoma viability, CellTiter-Glo ATP luminescence, 48 h; activity, negative = less viability: at 46.1 µM (top of the series) unless noted
How it was run: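 A 48-hour cytotoxicity screen used HT-1080-NT cells plated 2 hours before compound delivery. ATP-based CellTiter-Glo luminescence measured viability, normalized to DMSO and no-cell controls.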
Potency is read from the fitted curve at half-maximal effect; tags tell the direction and shape of the fitted curve.

SMILES | activity, negative = less viability | Potency
COc1ccc(C(=O)C2CCCN(C(=O)c3cccc(Cn4cccn4)c3)C2)cc1F (centres undefined) | inactive: -9.52% | –
COc1ccc2sc(-c3ccccc3OC)c(-c3ccc(OC)c(F)c3)c2c1 | – | inconclusive [rising, single point]
O=C(NNc1c2ccccc2nc2ccccc12)c1ccc(O)cc1O | – | inconclusive [cytotoxic, single point]
CCOc1ccc(S(=O)(=O)NCCC(=O)N2CCN(C(C)=O)CC2)cc1 | inactive: -1.97% | –
CN(C)c1ccc(/C=N/NC(=O)c2cc(-c3ccc4c(c3)OCO4)n[nH]2)cc1 | – | active: 5.8 µM
c1ccc(CSc2ccc(-c3cccnc3)nn2)cc1 | inactive: -6.92% | –
Fc1cccc(Cc2c(-c3ccco3)nc3ccc(Br)cn23)c1 | – | inconclusive [cytotoxic, single point]
O=C(Cc1ccc(Cl)cc1)NCC(=O)N1CCN(c2ccccc2)CC1 | – | inconclusive [cytotoxic, partial curve]
COCC(=O)O[C@]1(CCN(C)CCCc2nc3ccccc3[nH]2)CCc2cc(F)ccc2[C@@H]1C(C)C | – | inconclusive [cytotoxic, single point]
O=C(Nc1ccc(C(O)c2ccccc2)cc1)[C@H]1C[C@H](O)[C@@H](CO)O1 (some centres undefined) | – | inconclusive [rising, partial curve]
Cc1nn(CCCC(=O)NCc2ccc(Cl)cc2)c(C)c1[N+](=O)[O-] | inactive: 0.392% | –
CCN(CC)Cc1cc(Nc2ccnc3cc(Cl)ccc23)ccc1O | – | active: 10.3 µM
CCCC1=[N+](CC)CCn2c(C)ccc21 | – | inconclusive [rising, partial curve, poor fit]
COc1cccc(C(=O)N2CCC[C@@H]2C(=O)N2CCC[C@H]2C(=O)NCc2ccncc2)c1 | inactive: 19.5% | –
COc1nccnc1NS(=O)(=O)c1ccc(N=Cc2c(C)[nH]n(-c3ccc(C)c(C)c3)c2=O)cc1 | – | active: 10 µM
C[C@H](CO)N1C[C@H](C)[C@@H](CN(C)S(=O)(=O)c2ccccc2)Oc2c(NC(=O)Nc3ccc(C(F)(F)F)cc3)cccc2C1=O | – | inconclusive [cytotoxic, partial curve, poor fit]
COc1ccc(C(Nc2ccccn2)c2c(NC(=O)c3ccco3)sc(C)c2C)cc1 (centres undefined) | inactive: -17.6% | –
CC(=O)C1=C(O)C(=O)N(c2ccc(Br)cn2)C1c1ccc(Br)cc1 (centres undefined) | – | inconclusive [cytotoxic, single point]
NC1=NC(=O)C(CC(=O)c2ccc(Cl)cc2)S1 (centres undefined) | inactive: 11.8% | –
Cc1ccc2nc(SCC(=O)NC3CCCc4ccccc43)[nH]c2c1 (centres undefined) | – | inconclusive [cytotoxic, single point]
CCN(CC)C(=O)CSc1ncnc2c1nnn2-c1ccc(OC)cc1 | – | inconclusive [rising, partial curve]
N#C/C(=C/c1ccc(N2CCCCCC2)o1)c1ccc(F)cc1 | – | inconclusive [cytotoxic, partial curve]
OC(c1ccccc1)c1ncc(-c2cccc(OCc3ccccc3)c2)[nH]1 (centres undefined) | – | inconclusive [cytotoxic, partial curve]

SMILES | activity, negative = less viability | Potency
CN(C(=O)CN1CCN(c2cc(-c3ccc(OCc4ccccc4)cc3)ncn2)CC1)c1ccccc1 | – | inconclusive [cytotoxic, single point]
COc1ccc(OC)c(C(=O)C2COC(=O)C2)c1 (centres undefined) | – | inconclusive [cytotoxic, single point]
O=C(CN1CCc2ccccc21)NC(=O)NCc1ccccc1 | inactive: -8.75% | –
O=C(COc1ccccc1)NC(=S)Nc1ccc(Br)cn1 | inactive: 1.91% | –
CCc1cc(C(=O)N2CCCC(C(=O)c3cccc4ccccc34)C2)n(C)n1 (centres undefined) | inactive: -5.43% | –
Cc1ccccc1Cn1c(C)c(C(=O)NCCC#N)sc1=O | – | inconclusive [rising, single point]
CC(C)C[C@H]1CN(CCCC[C@@H]2CNC(=O)C(=O)N2CCc2ccccc2)C(=O)C(=O)N1CCC1CCCCC1 | – | inconclusive [cytotoxic, single point]
COc1cc(-c2nnc(NC(=O)CCS(=O)(=O)c3ccccc3)o2)cc(OC)c1OC | – | active: 20.6 µM
COc1cc(/C=C/C(=O)O)ccc1OS(=O)(=O)c1c(C)cc(C)cc1C | inactive: -16.9% | –
Oc1ccccc1/C=N/NC(=S)NCCc1ccccc1 | – | inconclusive [cytotoxic, single point]
C/C(=N\NC(=O)C1CCCC1)c1ccc(NC(=O)C(F)(F)F)cc1 | – | inconclusive [cytotoxic, single point]
O=C1CCN(Cc2ccc(Cl)cc2Cl)C(=O)N1 | inactive: -0.236% | –
Cc1ccc(-c2ccc(CN3C(CC(C)C)C(=O)N(Cc4cn(CCC5OCCO5)nn4)CCS3(=O)=O)cc2)cc1 (centres undefined) | – | active: 18.4 µM
COc1ccc(C(=O)Nc2cc(Cl)cc(Cl)c2)c(OC)n1 | – | inconclusive [rising, single point]
Cc1cc2oc3ccc(NCCC4CCCN4C)cc3c(=O)c2cc1C (centres undefined) | – | inconclusive [cytotoxic, single point]
CC(=O)c1cccc(CN2CCC(C(=O)Nc3ccc(-c4cccc(C)c4)cc3)CC2)c1 | – | inconclusive [cytotoxic, single point]
Cc1ccccc1OCC(=O)Nc1ccc(N2CCN(C(=O)c3ccco3)CC2)cc1 | – | inconclusive [cytotoxic, single point]
CC(=O)Nc1ccc(S(=O)(=O)N[C@@H](C)C(=O)OCC(=O)c2ccc(C)cc2)cc1 | inactive: 1.2% | –
COc1ccccc1N1CCN(C(=O)c2c(-c3c(F)cccc3Cl)noc2C)CC1 | – | inconclusive [cytotoxic, single point]
O=C(O)c1ccc2c(c1)C(=O)N(NC(=O)c1ccccc1)C2=O | – | inconclusive [cytotoxic, single point]
CCOC(=O)C(CC)Sc1nnc2n1C(C)(C)Cc1ccccc1-2 (centres undefined) | inactive: 18.7% | –
CCOC(=O)c1ccc2ncc(-c3ccccc3)nc2c1 | – | inconclusive [rising, full curve]
CCOC(=O)C1(C)CCN1C(=O)CSc1ccccc1 (centres undefined) | inactive: 25.5% | –

SMILES | activity, negative = less viability | Potency
O=C(C[C@H]1C[C@H](C(=O)N2CCOCC2)[C@@]2(CCC3CCCC3)c3[nH]c4cc(-c5ccco5)ccc4c3CCN2C1=O)NCCc1ccccn1 | – | active: 20.6 µM
Nc1nc(N)c(-c2cccc(C(F)(F)F)c2)c(Cc2cccc(C(F)(F)F)c2)n1 | – | inconclusive [cytotoxic, single point]
COC(=O)[C@@]12C[C@@H](CC(=O)NCC34CC5CC(CC(C5)C3)C4)C(=O)N(Cc3ccc4c(c3)OCO4)C1=CCC(C)(C)C2 | – | inconclusive [cytotoxic, partial curve]
Cc1csc(C(=O)O)c1-n1cccc1 | – | inconclusive [rising, single point]
Cc1ccc(C)n1-c1ccc(N2CCOCC2)c(Br)c1 | – | inconclusive [cytotoxic, single point]
Cc1c(Br)cc(C(=O)OC2CCN(C)CC2)c(C)c1C | – | inconclusive [cytotoxic, single point]
Nc1cc(Nc2ccc(Br)cc2)nc(N)n1 | inactive: -19.1% | –
CCCCCN1CC(O)=C(c2nc3ccccc3[nH]2)C1=N | – | inconclusive [cytotoxic, single point]
Cc1cc(Nc2cccc(F)c2)nc(-c2ccccc2O)n1 | – | inconclusive [cytotoxic, single point]
CO[C@@H]1CN(C)C(=O)c2ccc(NC(=O)C3CCC3)cc2OC[C@H](C)N(CC2CCCCC2)C[C@H]1C | – | inconclusive [cytotoxic, single point]
Cc1cc(C)cc(NC(=O)Nc2ccc(NC(=O)c3ccccc3O)cc2)c1 | inconclusive: -0.908% [cytotoxic] | –
Cc1ccc(C)c(OCC(=O)Nc2nonc2NC(=O)COc2cc(C)ccc2C)c1 | – | inconclusive [cytotoxic, single point]
Cc1ccc(Nc2nc(NCc3ccccc3)nc3ccsc23)c(C)c1 | – | inconclusive [cytotoxic, single point]
CC(=O)C1=CCC(c2ccccc2)N(Cc2ccccc2)C1 (centres undefined) | – | inconclusive [cytotoxic, single point]
CC(=O)Nc1cccc(-c2csc(Nc3cc(C)ccn3)n2)c1 | – | inconclusive [cytotoxic, single point]
COCCNC(=S)N1CCN(c2nc(-c3ccccc3)cs2)CC1 | – | inconclusive [cytotoxic, single point]
CCOc1ccccc1NC(=O)C(=O)CC(=O)c1ccc(OC)cc1 | inactive: -16.2% | –
Cc1ccc2nc(-c3ccc(NC(=O)CSc4ccccc4)cc3)[nH]c2c1 | – | inconclusive [cytotoxic, single point]
COc1cc2c(cc1OC)CN(c1nc(-c3cccnc3)nc3ccccc13)CC2 | – | active: 18.4 µM
CCN(CC)CC(O)COCCC12CC3CC(CC(C3)C1)C2 (centres undefined) | – | inconclusive [cytotoxic, single point]
COc1ccc(OC(F)(F)F)cc1CC1(C)C(=O)Nc2ccc(-c3ccsc3)cc21 (centres undefined) | – | inconclusive [cytotoxic, single point]
Cc1c(Cl)cccc1NC(=S)NCCc1ccc(Cl)cc1 | – | inconclusive [cytotoxic, single point]
COc1cc2c3nnc(-c4ccc(F)cc4)c-3cn(Cc3cccc(F)c3)c2cc1OC | – | inconclusive [cytotoxic, single point]
